Laboratory results from PubChem BioAssay AID588579 (National Center for Advancing Translational Sciences (NCATS), 2011).
Among all 400,000 compounds or so, about 2,200 (0.55%) were called active. The inconclusive results got no clear call from the source; some entries with a clear call stand among them for comparison. Calls come from the whole dose curve; as a rule, active = well fitted inhibition curve with a large enough effect; inconclusive = small, poorly fitted or top-dose-only effect, or another doubt; inactive = no such curve, though single readings can be large or run the other way. Potencies of inconclusive entries are doubtful fits and often do not repeat.

The molecules below were run against DNA polymerase kappa (Homo sapiens) (UniProt Q9UBT6) (assay: qHTS for Inhibitors of Polymerase Kappa). Conditions: purified Pol kappa, fluorescent DNA synthesis assay, 10 min; series mostly up to 107 µM.
Method in brief: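 Kinetic fluorescence readout at 0 and 10 min followed reaction start with substrate at 50 nM final. Beforehand, enzyme (10 nM Pol kappa) stood 15 min with compound at room temperature; buffer-only wells were negative controls.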
Potency is the fitted concentration of half-maximal effect; tags give direction and shape of the fitted curve.

Chain of UniProt Q9UBT6 (Q9UBT6 whole entry, looked up): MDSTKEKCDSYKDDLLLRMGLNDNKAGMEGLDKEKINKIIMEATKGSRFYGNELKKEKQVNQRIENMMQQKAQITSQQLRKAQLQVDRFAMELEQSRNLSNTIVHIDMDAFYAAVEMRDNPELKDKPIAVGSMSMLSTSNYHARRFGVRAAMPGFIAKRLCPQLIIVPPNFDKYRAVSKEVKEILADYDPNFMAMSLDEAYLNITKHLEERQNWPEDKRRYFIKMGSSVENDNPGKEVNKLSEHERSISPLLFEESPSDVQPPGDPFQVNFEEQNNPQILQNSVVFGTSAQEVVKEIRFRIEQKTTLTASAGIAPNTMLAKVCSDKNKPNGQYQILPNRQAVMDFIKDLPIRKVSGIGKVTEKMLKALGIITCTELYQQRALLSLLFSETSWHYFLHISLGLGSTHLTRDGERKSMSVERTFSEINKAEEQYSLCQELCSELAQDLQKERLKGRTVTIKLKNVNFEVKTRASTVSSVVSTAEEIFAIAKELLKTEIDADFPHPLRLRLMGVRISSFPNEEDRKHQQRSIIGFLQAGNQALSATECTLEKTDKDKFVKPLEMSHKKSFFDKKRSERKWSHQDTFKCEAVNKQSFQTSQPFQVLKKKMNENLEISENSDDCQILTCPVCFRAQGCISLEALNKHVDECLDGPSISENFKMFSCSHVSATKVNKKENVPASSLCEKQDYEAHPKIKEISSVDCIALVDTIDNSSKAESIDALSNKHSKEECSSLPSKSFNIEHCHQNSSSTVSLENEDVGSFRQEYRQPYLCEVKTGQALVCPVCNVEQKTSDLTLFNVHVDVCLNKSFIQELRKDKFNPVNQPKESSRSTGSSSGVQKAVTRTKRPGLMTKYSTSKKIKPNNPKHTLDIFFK

Potency, inactive:
O=C(O)C1CCCCC1C(=O)N1CC=C(c2ccccc2)CC1 (stereo not given), COc1ccc(-c2cc(C(=O)Nc3c(Cl)cccc3Cl)no2)cc1OC, CC1=C(C(N)=O)C(c2ccc(C(C)C)cc2)n2nc(SCc3ccccc3)nc2N1 (stereo not given), CCc1nn2c(-c3ccccc3OC)ccnc2c1-c1ccc(F)cc1, Cc1cccc(NC(=O)c2oc3c(c2C)-c2[nH]ncc2CC3)c1C, COC(=O)[C@H](Cc1ccccc1)NC(=O)NCC1CCCO1 (stereo not given in full), Cn1cnc(S(=O)(=O)N2CCCC(C(=O)NCc3ccccc3Cl)C2)c1 (stereo not given), CCC1CC=CC2C1C(=O)N(Cc1ccccc1)C2c1ccoc1 (stereo not given), O=C(COc1ccc2ccccc2c1)NNC(=O)c1ccc([N+](=O)[O-])cc1

Potency, active:
CCOC(=O)Cc1cc(=O)c2c(=O)n(-c3ccccc3)[nH]c2[nH]1 22.4 µM, CC(=O)c1sc2nc(-c3ccco3)ccc2c1N 79.4 µM

Potency, inconclusive:
CCCCC(NC(=O)Cc1c(C)c2cc3c(-c4ccccc4)coc3c(C)c2oc1=O)C(=O)O (stereo not given) 89.1 µM [inhibitor, partial curve, poor fit], Cc1ccc(S(=O)(=O)N(CC(=O)O)Cc2ccco2)cc1 89.1 µM [inhibitor, single point], O=C(O)[C@@H]1C[C@H](C(=O)O)N1 89.1 µM [inhibitor, single point], Cc1cc(OCCCSc2nc(-c3ccc(C(C)(C)C)cc3)nc3cc(=O)[nH]n23)ccc1Cl 89.1 µM [inhibitor, partial curve, poor fit], COc1cc(/C=C2\SC(=S)N(NC(=O)c3ccc(O)cc3)C2=O)ccc1O 79.4 µM [inhibitor, partial curve, poor fit], COc1ccc(Cl)cc1NC(=O)CN(c1cc(C)cc(C)c1)S(=O)(=O)c1c(C)n[nH]c1C 79.4 µM [inhibitor, partial curve, poor fit], CCN(CC)S(=O)(=O)c1ccc(N2CCOCC2)c(NC(=O)c2c3c(nc4ccccc24)CCC3)c1 79.4 µM [inhibitor, single point], COc1cc(/C=C2/CC/C(=C/c3ccc(O)c(OC)c3)C2=O)ccc1O 89.1 µM [inhibitor, single point], Cc1ccc(C(=O)c2coc3cc([N+](=O)[O-])c(O)c([N+](=O)[O-])c23)cc1 56.2 µM [inhibitor, partial curve, poor fit]
